# From PubChem BioAssay AID1030 (National Center for Advancing Translational Sciences (NCATS), 2008)
# Out of some 220,000 compounds screened, about 16,000 (7.3%) were called active. The shares of active, inactive and inconclusive entries below differ from those in the screen. Calls come from the whole dose curve; as a rule, active = well fitted inhibition curve with a large enough effect (not every such curve was filed as active); inconclusive = small, poorly fitted or top-dose-only effect, or another doubt; inactive = no such curve, though single readings can be large or run the other way. Potencies of inconclusive entries are left out as doubtful fits.
# Biological target: Aldehyde dehydrogenase 1A1 (Homo sapiens) (UniProt P00352)
# Experiment: qHTS Assay for Inhibitors of Aldehyde Dehydrogenase 1 (ALDH1A1);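 for activity, negative = inhibition: plate controls were no enzyme wells and a reference inhibitor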
# Conditions: Purified ALDH1A1, NADH fluorescence, propionaldehyde substrate; series mostly up to 75.3 µM; activity, negative = inhibition: at the top concentration
# Potency is the fitted concentration of half-maximal effect; tags give direction and shape of the fitted curve.
# Sequence of UniProt P00352 (P00352 whole entry, looked up): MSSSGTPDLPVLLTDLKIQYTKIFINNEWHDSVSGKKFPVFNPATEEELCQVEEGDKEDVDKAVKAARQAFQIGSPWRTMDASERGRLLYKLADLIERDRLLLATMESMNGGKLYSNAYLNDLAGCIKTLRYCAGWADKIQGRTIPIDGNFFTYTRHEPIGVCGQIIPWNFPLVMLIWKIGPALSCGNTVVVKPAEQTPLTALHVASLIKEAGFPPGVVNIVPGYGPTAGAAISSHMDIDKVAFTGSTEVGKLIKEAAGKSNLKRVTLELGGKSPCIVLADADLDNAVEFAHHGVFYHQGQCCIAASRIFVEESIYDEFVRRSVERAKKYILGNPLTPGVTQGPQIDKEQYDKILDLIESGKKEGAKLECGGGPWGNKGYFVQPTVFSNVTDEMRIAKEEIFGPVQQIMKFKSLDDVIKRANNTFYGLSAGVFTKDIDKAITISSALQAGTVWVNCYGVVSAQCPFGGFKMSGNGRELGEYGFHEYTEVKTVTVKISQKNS
Compound,Potency,"activity, negative = inhibition"
O=c1c(/C=N/O)coc2ccc3ccccc3c12,active: 11.2 µM,
O=C(c1cc2c(=O)n3ccccc3nc2s1)N1CCc2ccccc2C1,"inconclusive [inhibitor, partial curve]",
c1nc(COc2nsnc2N2CCOCC2)cs1,"inconclusive [inhibitor, partial curve]",
COC(=O)c1ccc(NC(=S)N2CCN(Cc3ccccc3)CC2)cc1,"inconclusive [inhibitor, single point]",
O=C(CCNc1cc(Cl)cc(Cl)c1)c1cccs1,active: 1.58 µM,
Cn1c(SCC(=O)c2ccccc2)nc2cccnc21,"inconclusive [inhibitor, single point]",
COc1ccc(S(=O)(=O)N2CCN(C(=O)COc3ccccc3)CC2)cc1,"inconclusive [inhibitor, single point]",
CCCCn1c(NCc2ccncc2)nc2ccccc21,,inactive: 17.6%
CN1Cc2ccccc2CC1CNCc1c(C(=O)N2CCCC2)nc2ccccn12 (configuration not stated),"inconclusive [inhibitor, partial curve]",
NC(CO)(CO)CO,,inactive: 6.32%
Cc1ncoc1C(=O)N1CCCC(C(=O)c2ccc(Oc3ccccc3)cc2)C1 (configuration not stated),active: 2.82 µM,
COc1c(/C=N/NC(N)=S)c(C)nn1-c1ccccc1,,inactive: -2.37%
c1ccc2c3nnc4n(c-3nc2c1)CCCS4,"inconclusive [inhibitor, single point]",
O=C1CCC(=O)N1c1ccc(-c2nc3ccccc3s2)cc1,,inactive: -0.242%
Cc1cccc(N(CC(=O)NC2CCCC2)C(=O)CS(=O)CC(=O)Nc2ccc3c(c2)OCO3)c1C (configuration not stated),"inconclusive [inhibitor, single point]",
Cc1ccc(S(=O)(=O)Nc2nc3ccccc3nc2Nc2cccc(S(=O)(=O)N3CCCC3)c2)cc1,"inconclusive [inhibitor, partial curve]",
COc1cc(OC)cc(-c2nnc(Nc3nc4c(F)cccc4s3)o2)c1,"inconclusive [inhibitor, single point]",
COc1ccc(-c2cc(C(F)(F)F)nc(N3CCCCC3)n2)cc1OC,"inconclusive [inhibitor, single point]",
O=S(=O)(Cc1ccc(Cl)cc1)c1ccccc1-c1nnc(-c2ccccc2)o1,"inconclusive [inhibitor, single point]",
O=C(NCC1CCCO1)C1CCC(=O)N1Cc1ccc(F)cc1 (configuration not stated),,inactive: 5.4%
CC(=O)N1C2(C=CC1(C)C(=O)NCc1ccccn1)CCCCC2 (configuration not stated),"inconclusive [inhibitor, single point]",
CCC(C)n1cnc2c(c1=O)c1nc3ccccc3nc1n2Cc1ccccc1OC (configuration not stated),"inconclusive [inhibitor, single point]",
CCOC(=O)N1CCN(Cc2nc3c(c(=O)n(C)c(=O)n3C)n2Cc2ccccc2)CC1,active: 0.126 µM,
COc1ccc(C=NCC2OCCc3ccccc32)cc1OC (configuration not stated),"inconclusive [inhibitor, single point]",

Compound,Potency,"activity, negative = inhibition"
CC(=O)C1=C(C)NC(SCC(N)=O)=C(C#N)C1C (configuration not stated),"inconclusive [inhibitor, single point]",
Cc1cccc(NC(=S)N(CCN2CCOCC2)Cc2cc3cc4c(cc3[nH]c2=O)OCCO4)c1,"inconclusive [inhibitor, single point]",
CCN(CC)S(=O)(=O)c1ccc(N=Nc2c(C)[nH]n(C(N)=S)c2=O)cc1,active: 7.94 µM,
CCCNC(=O)c1ccc(SC)cc1OC,"inconclusive [inhibitor, partial curve]",
O=C1c2ccccc2C(Nc2ccc3nc(-c4cccnc4)[nH]c3c2)N1Cc1ccco1 (configuration not stated),"inconclusive [inhibitor, partial curve]",
N#Cc1nc(-c2cccc(Cl)c2)oc1NCc1cccnc1,"inconclusive [inhibitor, partial curve]",
Cc1ccc(Cn2c(CN3CCN(C(=O)c4ccco4)CC3)nc3c2c(=O)n(C)c(=O)n3C)cc1,active: 0.158 µM,
CCCNC(=O)CN1C(=O)NC(CCc2ccccc2)C1=O (configuration not stated),,inactive: 0.458%
COc1cc2c(cc1OC)C(c1cc3ccccc3oc1=O)=NC(C)(C)C2,,inactive: -1%
CCOC(=O)N1CCN(Cc2nc3c(c(=O)[nH]c(=O)n3C)n2Cc2ccccc2C)CC1,"inconclusive [inhibitor, full curve]",
O=C(CCn1c(=S)[nH]c2ccccc2c1=O)NCC1CCCO1 (configuration not stated),"inconclusive [inhibitor, single point]",
O=[N+]([O-])C(/C=C(\Cl)[N+](=O)[O-])=C1N(Cc2ccc(Cl)nc2)CCN1Cc1ccc(Cl)nc1,"inconclusive [inhibitor, single point]",
O=S(=O)(Nc1ncccn1)c1ccc(NC(=S)NCc2ccco2)cc1,"inconclusive [inhibitor, single point]",
Cc1ccc(C2=NN(C(=O)CSc3nc4ncc(Cl)cc4[nH]3)C(c3ccco3)C2)cc1 (configuration not stated),"inconclusive [inhibitor, single point]",
N/N=C(/Cc1nc2ccccc2[nH]1)c1ccc([N+](=O)[O-])cc1,"inconclusive [inhibitor, single point]",
CCCC(=O)Nc1sc(Cc2ccccc2)c(C)c1C(N)=O,active: 1.78 µM,
COc1cc(SC#N)ccc1N=Cc1c(C)[nH]n(-c2ccc(C)c(C)c2)c1=O,active: 0.282 µM,
COc1ccc(S(=O)(=O)NC(N)=NCCc2ccccc2)cc1,"inconclusive [inhibitor, full curve]",
CN(C)Cc1ccccc1-c1ccc2ncnc(NCc3cccs3)c2c1,,inactive: 6.48%
N#C/C(=C\c1ccccc1)c1n[nH]c(Cn2cncn2)n1,"inconclusive [inhibitor, single point]",
C=CCCCCCCC=C,,inactive: -10.6%
N#Cc1nc(-c2ccc(F)cc2)oc1NCCCn1ccnc1,"inconclusive [inhibitor, partial curve]",
CCOCC(O)CNc1ccccc1 (configuration not stated),,inactive: 11.4%
COC(=O)Cc1csc(/N=C/c2c(O)n(-c3cccc(C(F)(F)F)c3)c(=O)c3ccccc23)n1,"inconclusive [inhibitor, partial curve]",

Compound,Potency,"activity, negative = inhibition"
CCCOc1ccc2c(=O)c(-c3cc(C(=O)OC)oc3C)c(C)oc2c1,"inconclusive [inhibitor, single point]",
O=[N+]([O-])c1ccccc1CNc1ccc(F)c(Cl)c1,"inconclusive [inhibitor, single point]",
C=CCc1ccc(OCCn2cccc2C=O)c(OC)c1,"inconclusive [inhibitor, single point]",
Cc1cc(C)c2c(=O)[nH]c(SCC(=O)N(C)C)nc2n1,,inactive: -13.6%
COc1ccc(C)cc1NC(=O)CSc1nnc(-c2cc3cccc(OC)c3o2)n1N,"inconclusive [inhibitor, partial curve]",
C=C(C)CC(c1ccccc1)N(C(C)=O)c1ccco1 (configuration not stated),,inactive: 2.89%
c1ccc(-c2noc(-c3cccc4ccccc34)n2)nc1,"inconclusive [inhibitor, single point]",
CCOC(=O)c1nc2sc(C)c(C)c2c(=O)[nH]1,"inconclusive [inhibitor, partial curve]",
C/C(=N\Nc1ccc([N+](=O)[O-])cc1)c1ccc(-n2nncc2C)cc1,,inactive: -12.9%
CS(=O)(=O)c1ccc2c(c1)sc1nc(=O)c(/C=C3/C=CC(=O)C(O)=C3)c(N)n12,active: 12.6 µM,
Cc1onc(-c2ccccc2Cl)c1C(=O)N/N=C(\N)COc1ccc(Cl)cc1,,inactive: -2.4%
O=C(NCCc1cccs1)C12CN(Cc3ccccc3)CC1C(c1cccc([N+](=O)[O-])c1)=NO2 (configuration not stated),"inconclusive [inhibitor, partial curve]",
Nc1nc(SCC(=O)NCC2CCCO2)[nH]c(=O)c1NC(=O)c1ccco1 (configuration not stated),"inconclusive [inhibitor, single point]",
COc1cccc2cc(C(=O)N3CCN(c4ncccn4)CC3)c(=O)oc12,"inconclusive [inhibitor, single point]",
CCCc1nc(SCC(=O)N2c3ccccc3CC2C)c2c(C)c(C)sc2n1 (configuration not stated),,inactive: 1.63%
O=Cc1ccc(-c2cc(Cl)ccc2Cl)[nH]1,"inconclusive [inhibitor, single point]",
NS(=O)(=O)c1ccc(NC(=S)NCc2cccs2)cc1,"inconclusive [inhibitor, single point]",
COc1ccc(N2CCN(C(=O)CSc3ncnc4c3cnn4-c3ccccc3C)CC2)cc1,,inactive: -6.4%
COc1cc(C(=O)OC2CCCCC2=O)cc(OC)c1C (configuration not stated),"inconclusive [inhibitor, partial curve]",
CCOc1c2ccc(C(=O)NC3CCCc4ccccc43)cc2nn1C (configuration not stated),"inconclusive [inhibitor, single point]",
COC(=O)[C@@H]1C[C@@H]2CC[C@@H](O)C[C@@H]2N1Cc1ccc(N2CCOCC2)cc1,"inconclusive [inhibitor, partial curve]",
Nc1nc(CSC(=S)N2CCN(c3ccccc3)CC2)nc(Nc2ccc(F)cc2)n1,,inactive: 11.8%
COc1ccc(C(=O)NC(=S)Nc2ccc(NC(=O)c3ccco3)cc2)cc1[N+](=O)[O-],,inactive: -15.4%
N#Cc1ccc(-n2c(-c3ccccc3)nnc2-c2ccccc2)cc1C#N,"inconclusive [inhibitor, partial curve]",
